Target: AgrA-P3 complex (Staphylococcus aureus, UniProt P0A0I7)
Experiment: Electrophoretic mobility shift assay, AgrA with P3 promoter DNA
Settings: tested at 0.1, 1 and 10 μM

Sequence of AgrA-P3 complex (P0A0I7 whole entry, one chain of several): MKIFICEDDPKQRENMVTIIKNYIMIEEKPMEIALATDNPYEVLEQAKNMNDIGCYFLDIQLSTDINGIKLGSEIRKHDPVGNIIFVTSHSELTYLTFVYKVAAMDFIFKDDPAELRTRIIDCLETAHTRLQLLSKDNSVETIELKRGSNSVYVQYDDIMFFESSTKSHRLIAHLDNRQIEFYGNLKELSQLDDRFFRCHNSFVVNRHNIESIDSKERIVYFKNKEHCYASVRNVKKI

For `CCCCCCc1cc(C(=O)COc2ccc(F)cc2F)c(O)cc1O` [4f-12], the “concentration at which the band of the AgrA-P3 complex disappears” value was 10 µM.
